The values below come from the supplement of paper PMC4723716.

Molecules are shown by their SMILES. Where “and” joins values, the source holds several entries; their conditions need not be identical. Equal entries are not always repeated. ± gives the uncertainty stated by the source. The full ranking holds about 9,900 compounds; the median of “viability index relative to DMSO control” is about 1, and the lowest 2% start at about 0.85. Some of the results follow.

The experiment concerns Plasmodium falciparum NF54 stage V gametocytes. Nature of the experiment: viability index relative to DMSO control (fraction); higher = less gametocyte killing. Conditions: 2.5 µM, library set: Broad Institute DOS, incubation time: 72 h. The essentials: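 Compound at 2.5 µM was incubated for 72 hr at 37°C under low oxygen with P. falciparum NF54 stage V gametocytes (0.75% gametocytemia, 1.25% hematocrit, 10 µl, serum-free screening medium) in 1,536-well plates. Staining used 3 µl of 2.5 µM MitoTracker Red CMXRos plus 0.13% saponin for one to two hours, and red particles of 20–70 µm2 were counted in one imaged field per well. Each viability index is that count relative to the plate mean of solvent-only wells.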
Take `C[C@H]1CCCCO[C@@H](CN(C)C(=O)Cc2ccccc2)[C@@H](C)CN([C@@H](C)CO)C(=O)c2cc(NS(C)(=O)=O)ccc2O1`: the viability index was determined as 1.06 ± 0.014. The same measure for `Cc1noc(C)c1NC(=O)N[C@H]1C=C[C@H](CC(=O)Nc2ccc(-c3ccccc3)cc2)O[C@@H]1CO`: 1.02 ± 0.041; for `CN1[C@H](CO)[C@@H]2c3ccccc3N(C(=O)C3CCCCC3)C[C@@H]21`: 1.01 ± 0.051. In turn, `C[C@H]1CN([C@@H](C)CO)C(=O)c2cc(NC(=O)NC3CCCCC3)ccc2O[C@@H]1CN(C)S(C)(=O)=O` came in with a viability index of 0.942 ± 0.062. The same measure for `C[C@H]1CN([C@@H](C)CO)C(=O)c2c(c3ccccc3n2C)-c2ccccc2CO[C@@H]1CN(C)C(=O)NC1CCCCC1`: 1.04 ± 0.11; for `COc1ccc(S(=O)(=O)Nc2ccc3c(c2)[C@@H]2C[C@H](CC(=O)N(C)C)O[C@@H](CO)[C@@H]2O3)cc1`: 1.14 ± 0.04.

`CCC(=O)N1[C@@H]2Cn3c(cccc3=O)[C@H]1[C@@H](C(=O)NC1Cc3ccccc3C1)[C@@H]2CO` came in with a viability index of 1.05 ± 0.026.

`C[C@@H]1CN([C@@H](C)CO)C(=O)Cc2cc(N(C)C)ccc2O[C@@H]1CN(C)Cc1ccc(-c2ccccc2)cc1` came in with a viability index of 1.013 ± 0.0053.

`C[C@@H]1CN([C@@H](C)CO)S(=O)(=O)c2ccc(C#CCC3CCCC3)cc2O[C@@H]1CN(C)C(=O)c1cnccn1` showed a viability index of 0.899 ± 0.07. Then `Cc1ccc(S(=O)(=O)N(C)C[C@H]2Oc3c(NS(C)(=O)=O)cccc3C(=O)N([C@H](C)CO)C[C@@H]2C)cc1`, with 0.92 ± 0.059. Then `OC[C@H]1[C@H]2c3ccccc3NC[C@H]2N1CC1CCOCC1`, with 1.03 ± 0.068. The same measure for `CO[C@H](CN(C)Cc1ccc2c(c1)OCO2)[C@@H](C)CN(C(=O)c1ccccc1)[C@H](C)CO`: 1.05 ± 0.048; for `CO[C@H]1CN(C)C(=O)c2ccc(NC(=O)Nc3ccccc3)cc2OC[C@H](C)N(C(=O)CC2CC2)C[C@@H]1C`: 1.05 ± 0.11.

On to `CN1C(=O)c2cc(NC(=O)Nc3ccccc3Cl)ccc2OC[C@@H]2O[C@H](CC(=O)O)CC[C@@H]21`, for which the viability index turned out to be 0.951 ± 0.083. Then `COc1ccc2c3c([nH]c2c1)[C@H](CO)N(Cc1ccccn1)C[C@]31CN(Cc2cccc(F)c2)C1`, with 1.015 ± 0.0049; and `Cc1noc(C)c1NC(=O)Nc1ccc2c(c1)C(=O)N([C@@H](C)CO)C[C@@H](C)[C@H](CN(C)Cc1ccc3c(c1)OCO3)OCCCC[C@@H](C)O2`, with 1.09 ± 0.094. Then `CN1C(=O)c2cc(NC(=O)c3cnccn3)ccc2OC[C@@H]2O[C@H](CC(=O)N[C@@H]3CCN(Cc4ccccc4)C3)CC[C@@H]21`, with 1.04 ± 0.021; and `CC(C)(C)[S@@](=O)N1Cc2cc(C(=O)NCc3ccccn3)nc(-c3cccc(-c4ccccc4F)c3)c2[C@H]1CCO`, with 0.93 ± 0.015; and `C/C=C/c1ccc2n(c1=O)C[C@H]1[C@H](CO)[C@@H](C(=O)NCc3cccc(OC)c3)N[C@@H]21.C/C=C\c1ccc2n(c1=O)C[C@H]1[C@H](CO)[C@@H](C(=O)NCc3cccc(OC)c3)N[C@@H]21`, with 1.1 ± 0.064. The same measure for `COc1cccc(NC(=O)C[C@@H]2CC[C@H]3[C@H](COc4ccc(NC(=O)C5CC5)cc4C(=O)N3C)O2)c1`: 1.14 ± 0.015; for `C/C=C/c1ccc2c(c1)O[C@H](CN(C)C(=O)Nc1ccc(OC)cc1)[C@@H](C)CN([C@@H](C)CO)S2(=O)=O`: 0.994 ± 0.072. `CCC(=O)N1[C@H](CO)[C@H](c2ccccc2)[C@@H]1CN(CC)C(=O)c1cccc(F)c1` had a viability index of 1.04 ± 0.05. The same measure for `O=C(C1CCC1)N1C[C@H]2[C@@H](c3ccccc31)[C@H](CO)N2C(=O)Nc1cccc(F)c1`: 0.966 ± 0.036; for `COc1ccc(NC(=O)N[C@H]2CC[C@H](CCNC(=O)CN3CCOCC3)O[C@@H]2CO)cc1`: 0.944 ± 0.048; for `O=C(C1CCOCC1)N1CC(=O)N2[C@H](CO)[C@@H](c3ccc(C#CCc4ccccc4)cc3)[C@H]2C1`: 1.02 ± 0.0049. `CN1C(=O)c2cc(NC(=O)C3CCOCC3)ccc2OC[C@H]2O[C@@H](CC(=O)NCC3CCCCC3)CC[C@@H]21` had a viability index of 1.13 ± 0.071. Then `COCC(=O)NC[C@H]1[C@H](c2ccccc2)[C@@H](CO)N1C(=O)c1ccccc1`, with 1.05 ± 0.02; and `COc1ccc2c3c([nH]c2c1)[C@@H](CO)N(Cc1cc(OC)cc(OC)c1)C[C@]31CN(C1)S(=O)(=O)c1cccc(F)c1`, with 0.996 ± 0.063; and `CO[C@H](C(=O)N(C)C[C@H]1OCc2ccccc2-c2ccccc2C(=O)N([C@H](C)CO)C[C@H]1C)c1ccccc1`, with 1.04 ± 0.13. Then `O=S(=O)(c1ccccc1F)N1[C@@H]2CNC[C@H]1[C@@H]2c1ccc(-c2cncnc2)cc1`, with 0.963 ± 0.052; and `CC(C)CC#Cc1ccc([C@H]2[C@@H](CO)N3C(=O)CN(S(=O)(=O)c4cccc(F)c4)C[C@H]23)cc1`, with 0.956 ± 0.059; and `CC(C)[C@@H]1COCc2cn(nn2)CC[C@H](Cc2ccc(-c3ccccc3)cc2)C(=O)N1`, with 1.04 ± 0.11. The same measure for `COc1ccc2c3c([C@H](CO)N(Cc4ccncc4)C[C@]33CN(C3)C(=O)Nc3cccc(F)c3)n(C)c2c1`: 1.03 ± 0.026.

Turning to `CN1C(=O)c2cc(NC(=O)c3ccc(C(F)(F)F)cc3)ccc2OC[C@@H]2O[C@@H](CC(=O)NCc3ccc4c(c3)OCO4)CC[C@H]21`, the viability index came out at 1.08 ± 0.086. The same measure for `C[C@@H](NC(=O)C[C@@H]1C=C[C@@H](NC(=O)c2cccnc2)[C@H](CO)O1)c1ccccc1`: 1.09 ± 0.021.

The molecule `C[C@@H]1CN([C@H](C)CO)C(=O)c2cccc(NS(=O)(=O)c3cn(C)cn3)c2O[C@H]1CN(C)Cc1ccc(Oc2ccccc2)cc1` registered a viability index of 0.985 ± 0.069. As to `COc1ccc(NC(=O)Nc2ccc3c(c2)[C@H]2C[C@@H](CC(=O)NCC(F)(F)F)O[C@@H](CO)[C@H]2O3)cc1`, the viability index stood at 1.14 ± 0.05. The same measure for `CN(C)C(=O)[C@H]1[C@H](CO)[C@H]2Cn3c(ccc(/C=C/c4ccccc4)c3=O)[C@H]2N1C(=O)c1cccnc1`: 0.956 ± 0.03; for `O=C(C[C@H]1C[C@H]2c3cc(NC(=O)Nc4ccccc4F)ccc3O[C@H]2[C@@H](CO)O1)NCc1ccccn1`: 1.01 ± 0.024. The same measure for `CN(C)c1ccc2c(c1)[C@@H]1C[C@@H](CC(=O)NCc3ccccn3)O[C@@H](CO)[C@@H]1O2`: 1.04 ± 0.057; for `O=C(NC1Cc2ccccc2C1)[C@H]1[C@H](CO)[C@H]2Cn3c(cccc3=O)[C@H]2N1C(=O)c1cnccn1`: 1.07 ± 0.044; for `CC(=O)N1CC2(C1)[C@@H](c1ccccc1)[C@@H](CO)N2C(=O)Cc1ccccc1`: 1.063 ± 0.0082. The same measure for `CCCN1C[C@@H](C)[C@@H](OC)CN(C)C(=O)c2cc(NS(=O)(=O)c3ccccc3)ccc2OC[C@H]1C`: 1.049 ± 0.0032; for `CCc1csc(N2[C@@H](C#N)[C@@H](c3ccccc3-c3ccc(F)cc3)[C@@H]2CO)n1`: 1.09 ± 0.08. For the molecule `COc1ccccc1NC(=O)N1C[C@H](O)COC[C@@H]2O[C@H](CC(=O)NCCc3ccncc3)CC[C@H]21`, the viability index is 1.03 ± 0.026. The same measure for `C[C@@H]1CN([C@H](C)CO)C(=O)c2ccccc2-c2ccccc2CO[C@@H]1CN(C)C(=O)[C@@H](Cc1ccccc1)N(C)C`: 1.01 ± 0.051; for `COc1ccccc1NC(=O)N1C[C@@H]2N[C@H](C1)[C@H]2c1ccc(/C=C/c2ccccc2)cc1`: 0.976 ± 0.048; for `O=C(Nc1ccc(F)cc1)N1CC(=O)N2[C@H](C1)[C@H](c1ccc(-c3cccc(F)c3)cc1)[C@@H]2CO`: 1.06 ± 0.015.

The molecule `COc1ccc2c3c([nH]c2c1)[C@H](CO)N(C[C@]31CCN(CC1)C(C)=O)C(C)=O` returned a viability index of 1.035 ± 0.0018.

Take `C[C@@H](NC(=O)C[C@@H]1C=C[C@@H](NS(=O)(=O)c2cccc(F)c2)[C@H](CO)O1)c1ccccc1`: the viability index is 1.09 ± 0.027. Then `CO[C@@H]1CN(C)C(=O)c2cc(NC(=O)Nc3cc(F)ccc3F)ccc2OC[C@H](C)NC[C@@H]1C`, with 1.03 and 1.14; and `COc1ccc2c3c([nH]c2c1)[C@H](CO)N(Cc1ccccc1)C[C@]31CN(C1)C(=O)Nc1cccc(F)c1`, with 1 ± 0.02; and `COCC(=O)Nc1ccc2c(c1)[C@@H]1C[C@H](CC(=O)N3CCOCC3)O[C@H](CO)[C@@H]1O2`, with 1.1 ± 0.016. For `O=C(Nc1ccc(F)cc1)N1C[C@@H]2[C@H](c3ccccc31)[C@@H](CO)N2Cc1ccccc1Cl`, the viability index stood at 1.13 ± 0.043. The same measure for `C[C@@H]1CN([C@H](C)CO)C(=O)CCCn2nncc2CO[C@@H]1CN(C)C(=O)Nc1ccccc1C(F)(F)F`: 0.97 ± 0.051.

Molecule `CCCC(=O)Nc1ccc2c(c1)C(=O)N(C)[C@@H]1CC[C@@H](CC(=O)NCc3cccc(F)c3)O[C@H]1CO2` displayed a viability index of 0.991 ± 0.12. Then `O=C(c1cccc(F)c1)N1C[C@H]2[C@@H](c3ccccc31)[C@@H](CO)N2Cc1cocn1`, with 0.997 ± 0.053; and `COC(=O)C[C@@H]1CC[C@@H]2[C@H](COc3ccc(NC(=O)Nc4c(C)noc4C)cc3C(=O)N2C)O1`, with 0.966 ± 0.053; and `Cc1ccccc1S(=O)(=O)N1C[C@@H]2N[C@H](C1)[C@H]2c1ccc(/C=C/c2ccccc2)cc1`, with 1 ± 0.048. As to `CO[C@@H]1CN(C)C(=O)c2cc(NC(=O)c3nc4ccccc4s3)ccc2OC[C@@H](C)NC[C@H]1C`, the viability index came out at 1.11 ± 0.067. The same measure for `CC(C)C#Cc1ccc([C@H]2[C@H]3CN(C(=O)c4ccc5c(c4)OCO5)CC(=O)N3[C@H]2CO)cc1`: 0.988 ± 0.036; for `COc1ccc2c3c([nH]c2c1)[C@H](CO)NC[C@]31CN(Cc2cc(F)ccc2F)C1`: 1.03 ± 0.011; for `N#C[C@H]1[C@@H](c2ccc(-c3cccnc3)cc2)[C@@H](CO)N1C(=O)C1CCOCC1`: 1.07 ± 0.031. Then `CCCC(=O)N1C[C@]2(CN(C2)C(=O)NC(C)C)c2c([nH]c3cc(OC)ccc23)[C@@H]1CO`, with 1.05 ± 0.018; and `O=C(C[C@@H]1CC[C@H]2NC[C@H](O)COC[C@@H]2O1)Nc1nccs1`, with 1.04 ± 0.068; and `N#C[C@H]1N[C@H](CO)[C@H]1c1ccc(-c2cccc(F)c2)cc1`, with 1.1 ± 0.075. Then `C[C@@H]1CCCCO[C@H](CN(C)C(=O)CCC(F)(F)F)[C@@H](C)CN([C@H](C)CO)C(=O)c2cc(NC(=O)C3CCCCC3)ccc2O1`, with 1.08 ± 0.12; and `COc1ccc2c3c([C@@H](CO)N(Cc4nccs4)C[C@]33CCN(CC3)C(=O)CN(C)C)n(C)c2c1`, with 0.905 ± 0.039; and `COc1ccccc1NC(=O)N1C[C@@H]2[C@H](c3ccccc31)[C@H](CO)N2C(=O)C1CCCC1`, with 1.01 ± 0.096. As to `CO[C@@H]1CC[C@H]2CCOc3c(C#N)cccc3C(=O)N(C)C[C@@H](OC)[C@H](C)C(=O)N(C)C[C@@H]1O2`, the viability index stood at 1.047 ± 0.0065.
